# Reference: PubChem BioAssay AID1768 (National Center for Advancing Translational Sciences (NCATS), 2009)
# Hit rate of the full screen: of about 270,000 compounds, about 620 (0.23%) were called active. The inconclusive results got no clear call from the source; some entries with a clear call stand among them for comparison. Calls come from the whole dose curve; as a rule, active = well fitted inhibition curve with a large enough effect in the polarisation, with a control signal flat (not every such curve was filed as active); inconclusive = small, poorly fitted or top-dose-only effect, or effect the other way, or a change in a side signal; inactive = no such curve, though single readings can be large or run the other way; the % refers to the polarisation. Where the call is inconclusive, the potency comes from a doubtful curve fit. A note “side channel” means that the fit belongs to a control or component signal, not to the main read-out.
# Target: Menin (Homo sapiens) (UniProt O00255)
# Assay: qHTS Assay for Inhibitors Targeting the Menin-MLL Interaction in MLL Related Leukemias: Competition With Texas Red Labeled MLL-derived Mutant Peptide; for FP activity change, negative = inhibition: % of control where 0% means no effect
# Settings: fluorescence polarization; FP activity change, negative = inhibition: at 61.6 µM (top of the series)
# Potency is the fitted concentration of half-maximal effect; tags give direction and shape of the fitted curve or compound fluorescence and quenching.
# Sequence of UniProt O00255 (O00255 whole entry, looked up): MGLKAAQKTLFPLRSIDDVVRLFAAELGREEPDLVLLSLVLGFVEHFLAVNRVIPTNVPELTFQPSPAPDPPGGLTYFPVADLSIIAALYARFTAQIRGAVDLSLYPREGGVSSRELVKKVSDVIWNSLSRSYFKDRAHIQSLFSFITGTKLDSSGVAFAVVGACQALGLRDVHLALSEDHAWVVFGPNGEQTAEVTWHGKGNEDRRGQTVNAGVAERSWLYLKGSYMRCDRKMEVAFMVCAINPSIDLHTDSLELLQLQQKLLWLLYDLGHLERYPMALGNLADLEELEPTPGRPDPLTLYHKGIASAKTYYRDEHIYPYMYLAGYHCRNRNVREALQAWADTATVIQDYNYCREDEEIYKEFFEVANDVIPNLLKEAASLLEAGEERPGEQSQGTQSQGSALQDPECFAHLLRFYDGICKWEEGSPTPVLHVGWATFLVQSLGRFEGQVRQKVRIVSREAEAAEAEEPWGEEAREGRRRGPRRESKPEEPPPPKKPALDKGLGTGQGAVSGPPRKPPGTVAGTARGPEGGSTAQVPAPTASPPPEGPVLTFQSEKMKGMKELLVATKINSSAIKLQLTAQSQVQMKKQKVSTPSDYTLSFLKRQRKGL
Compound,Potency,"FP activity change, negative = inhibition"
O=C(Nc1cccc(Cl)c1)c1ccc2c(c1)SC1=NS(=O)(=O)CCN12,"inconclusive: 31.6 µM [quencher, side channel, single point]",
CCOc1ccccc1OCCCCCc1c(C)n[nH]c1C,"inconclusive: 28.2 µM [fluorescent, side channel, partial curve]",
CCOC(=O)c1sc(NC(=O)Nc2ccc(Cl)cc2)cc1C,"inconclusive: 5.01 µM [quencher, side channel, full curve]",
CCCOc1nc2ccccc2cc1/C=C/C(=O)O,"inconclusive: 22.4 µM [fluorescent, side channel, partial curve]",
CC1CCCCC1NC(=O)CO/N=C/c1ccc(OC(F)F)cc1 (stereo unspecified),"inconclusive: 12.6 µM [fluorescent, side channel, partial curve]",
COc1ccc(/C(O)=C/c2nc3ccc(C(=O)NCCc4cccc(C)c4)cc3[nH]c2=O)cc1OC,inactive,
O=C(N/N=C/C(Br)=C/c1ccccc1)c1ccc([N+](=O)[O-])cc1,"inconclusive: 22.4 µM [quencher, side channel, partial curve]",
COCCCN1CC(=O)N2C(c3cccc(OC)c3)c3[nH]c4ccccc4c3C[C@H]2C1=O (stereo partly specified),"inconclusive: 0.355 µM [inhibitor, full curve, poor fit]",
O=C(c1ccc2nc(-c3ccco3)c(-c3ccco3)nc2c1)N1CCN(c2ncccn2)CC1,"inconclusive: 39.8 µM [quencher, side channel, single point]",
Nc1c(S(=O)(=O)c2ccccc2)c2nc3ccccc3nc2n1Cc1ccco1,inactive,
CCC(C)c1ccccc1NC(=O)COC(=O)c1ccc2[nH]c3c(c2c1)CCCC3 (stereo unspecified),inactive,
c1cc2c3c(cccc3c1)NC1(CCCCCC1)N2,"inconclusive: 14.1 µM [quencher, side channel, partial curve]",
O=C(COC(=O)c1ccc(NS(=O)(=O)c2cccs2)cc1O)Nc1nc2ccccc2s1,"inconclusive: 35.5 µM [quencher, side channel, partial curve]",
COc1ccccc1C(O)(C(=O)N(NC(C)=O)c1ccccc1)c1ccccc1OC,"inconclusive: 22.4 µM [inhibitor, single point]",
COc1ccc(N2CCN(CC(O)COCc3ccccc3)CC2)cc1 (stereo unspecified),"inconclusive: 12.6 µM [inhibitor, partial curve]",
COc1ccc(/C=C2\CCCC3C2=NN(C(=O)CSc2ncn[nH]2)C3c2ccc(OC)cc2)cc1 (stereo unspecified),"inconclusive: 39.8 µM [fluorescent, side channel, single point]",
CCOc1ccc(N2C=Nc3ccc(OCC)cc3C2)cc1,"inconclusive: 39.8 µM [inhibitor, single point]",
Oc1ccc(C2=Nn3c(nnc3-c3ccco3)SC2)cc1O,"inconclusive: 3.55 µM [inhibitor, partial curve]",
COc1ccc(CN(C)CC2CCCN(CCc3ccc(F)cc3)C2)c(OC)c1OC (stereo unspecified),"inconclusive: 25.1 µM [inhibitor, single point]",
O=C(Nc1ccc(Cl)cc1)Nc1cccc2nsnc12,"inconclusive: 31.6 µM [quencher, side channel, partial curve]",
O=C(O)c1ccc(Cl)c(S(=O)(=O)Nc2ccccc2C(=O)Nc2ccc(Cl)cc2)c1,"inconclusive: 10 µM [quencher, side channel, partial curve]",

Compound,Potency,"FP activity change, negative = inhibition"
COc1ccc(N2CCN(C(CNC(=O)c3ccc4c(c3)OCO4)c3cccnc3)CC2)cc1 (stereo unspecified),"inconclusive: 15.8 µM [inhibitor, partial curve]",
COC(=O)[C@H](Cc1ccccc1)NC(=O)C/C=C\[C@@H](C)[C@@H](CO)OC,,inactive: 1.52% [at 11.7 µM]
CCCNC(=O)c1ccc(COc2ccc(C(C)(C)C)cc2)o1,"inconclusive: 7.94 µM [fluorescent, side channel, partial curve]",
COc1ccc(N2CCN(CNC(=O)c3ccccc3)CC2)cc1,"inconclusive: 35.5 µM [inhibitor, single point]",
N#C/C(=C\c1ccc(O)c(O)c1)C(=O)NCCc1ccccc1,"inconclusive: 22.4 µM [quencher, side channel, partial curve]",
O=S(=O)(c1ccccc1)N1CCc2ccccc2C1,"inconclusive: 31.6 µM [inhibitor, single point]",
O=C(Nc1cccc([N+](=O)[O-])c1)C1CCN(C(=O)Cc2ccccc2)CC1,"inconclusive: 14.1 µM [quencher, side channel, single point]",
Cc1ccc(OC(F)F)c(NC(=O)Nc2cccc(C(F)(F)F)c2)c1,"inconclusive: 2.51 µM [quencher, side channel, full curve]",
Cc1ccc(-n2nc3ccc(NC(=O)c4ccco4)cc3n2)cc1,"inconclusive: 17.8 µM [quencher, side channel, single point]",
Fc1cccc2sc(Nc3nnc(-c4ccccc4)o3)nc12,"inconclusive: 25.1 µM [quencher, side channel, partial curve]",
O=C(CC1Nc2ccccc2NC1=O)c1ccccc1 (stereo unspecified),"inconclusive: 31.6 µM [quencher, side channel, single point]",
O=C(Nc1cccc2c1C(=O)NC2=O)c1ccc(N2C(=O)CCC2=O)cc1,"inconclusive: 25.1 µM [inhibitor, partial curve]",
O=C(Nc1ccccc1)c1ccc(NCCc2ccccc2)c([N+](=O)[O-])c1,"inconclusive: 10 µM [quencher, side channel, partial curve]",
N#Cc1ccc(N2C(=O)[C@@H]3C(C(=O)C(c4ccccc4)c4ccccc4)=NN[C@@H]3C2=O)cc1,"inconclusive: 10 µM [quencher, side channel, partial curve]",
COc1ccc2[nH]c(=O)c(C(=O)O)cc2c1,inactive,
CCc1ccccc1NC(=O)c1ccc(-c2csc(C)n2)cc1,"inconclusive: 31.6 µM [fluorescent, side channel, single point]",
Cc1[nH]c2ccccc2c1C(=O)C(C)OC(=O)c1ccc([N+](=O)[O-])o1 (stereo unspecified),"inconclusive: 31.6 µM [quencher, side channel, single point]",
Cc1cccc(C)c1NC(=S)NCCc1ccc(O)c(O)c1,inactive,
CC1(C)CNc2cc(N)ccc2S1,"inconclusive: 12.6 µM [quencher, side channel, partial curve]",
CCOC(=O)c1nc(NNC(=O)c2ccc([N+](=O)[O-])cc2)sc1C,"inconclusive: 28.2 µM [quencher, side channel, partial curve]",
O=C(Nc1ncc(Cc2ccc(SC(F)F)cc2)s1)c1ccccc1,"inconclusive: 7.94 µM [quencher, side channel, partial curve]",

Compound,Potency,"FP activity change, negative = inhibition"
CCOC(=O)N1CCC(Nc2nc3ccccc3nc2NS(=O)(=O)c2ccc(Cl)cc2)CC1,"inconclusive: 12.6 µM [quencher, side channel, partial curve]",
Cc1ccc(CN2CCN(C/C=C/c3ccc(F)cc3)CC2CCO)o1 (stereo unspecified),"inconclusive: 7.94 µM [inhibitor, partial curve]",
S=C(NCCCN1CCOCC1)N(Cc1ccccc1)Cc1ccccc1,"inconclusive: 15.8 µM [fluorescent, side channel, partial curve]",
CC(C)N1CCC(N2CCN(CCCc3ccccc3)CC2CCO)CC1 (stereo unspecified),"inconclusive: 7.08 µM [inhibitor, full curve, poor fit]",
Oc1ccccc1N=Cc1c(O)ccc2ccccc12,"inconclusive: 17.8 µM [quencher, side channel, partial curve]",
CCOc1ccc(N=Nc2c(=O)[nH]n3c(=O)cc(C)[nH]c23)cc1,"inconclusive: 28.2 µM [quencher, side channel, partial curve]",
COc1cc(CNc2ccc(CNc3ncn[nH]3)cc2)cc(Cl)c1OCc1ccccc1,"inconclusive: 2.51 µM [quencher, side channel, full curve]",
O=C(CNc1ccc2c(c1)OCO2)N/N=C\c1cn(Cc2ccccc2)c2ccccc12,"inconclusive: 28.2 µM [quencher, side channel, partial curve]",
Cc1ccc(C2CC(c3cccs3)=NN2C(=O)c2ccco2)o1 (stereo unspecified),"inconclusive: 10 µM [fluorescent, side channel, partial curve]",
Cc1ccc(S(=O)(=O)N(CC(=O)NC2CCCCCC2)c2ccccc2F)cc1,"inconclusive: 28.2 µM [fluorescent, side channel, single point]",
CCc1ccc(NC(=O)/C(C#N)=C/c2cn(CC(=O)O)c3ccccc23)cc1,"inconclusive: 17.8 µM [quencher, side channel, partial curve]",
O=c1cc(O)c2ccccc2n1Cc1ccccc1Cl,"inconclusive: 7.08 µM [inhibitor, single point]",
CC1(OC(=O)C2CCCC2)C(=O)C=C2C=C(c3ccsc3)N(C(CO)CO)C=C2C1=O (stereo unspecified),,inactive: 0.145% [at 11.7 µM]
COc1cccc(/C=C(/CC(=O)Nc2ccc(N3CCOCC3)cc2)c2nc3ccccc3s2)c1,"inconclusive: 31.6 µM [quencher, side channel, single point]",
Cc1ccc(C(=O)COC(=O)CN2C(=O)C3C4C=CC(C4)C3C2=O)cc1[N+](=O)[O-] (stereo unspecified),"inconclusive: 7.94 µM [quencher, side channel, full curve]",
COc1cc(CNc2ccc(C)c(C)c2)cc(OC)c1OC,"inconclusive: 2.24 µM [inhibitor, full curve]",
COc1ccc(/C=C2\SC(=O)N(CC(=O)NNC(=O)c3ccccc3O)C2=O)cc1,"inconclusive: 39.8 µM [inhibitor, single point]",
Cc1ccc(-n2c(C)c3c(C)nnc(C)c3c2C)cc1N,"inconclusive: 31.6 µM [inhibitor, single point]",
Fc1ccc2nc(Nc3nc4c(F)cccc4s3)sc2c1,"inconclusive: 11.2 µM [quencher, side channel, partial curve]",
